In all, about 410,000 compounds went through this assay and about 7,200 (1.8%) were called active. This list was built around the results that the source calls inconclusive (neither active nor inactive); the mix of calls is not that of the screen. Calls come from the whole dose curve; as a rule, active = well fitted activation curve with a large enough effect; inconclusive = small, poorly fitted or top-dose-only effect, or another doubt; inactive = no such curve, though single readings can be large or run the other way. Potencies of inconclusive entries are left out as doubtful fits.
Assay: qHTS of TDP-43 Inhibitors; note: nearly all actives have a fitted effect of over 50% in size; for growth rescue (activation): % of control where 0% means no effect
Details: TDP-43 expressing yeast growth rescue, BacTiter-Glo, 24 h; growth rescue (activation): at 46.1 µM (top of the series) unless noted
In short: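 Readout is BacTiter-Glo luminescence of cell growth, so inhibitors register as activators. TDP-43-expressing yeast at OD600=0.02 in galactose medium, after raffinose pregrowth to mid-log, were incubated with compound for 24 hr at 30 deg C.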
Potency is the fitted concentration of half-maximal effect; tags give direction and shape of the fitted curve.

SMILES	growth rescue (activation)	Potency
COc1cccc(CNC(=O)C2CCCN(S(=O)(=O)c3cn(C)cn3)C2)c1 (stereo not given)	inactive: 16%	–
Cc1ccnc(NC(c2cc(C)ccc2O)c2ccc3cccnc3c2O)c1 (stereo not given)	–	inconclusive [activator, single point]
Cc1c(Cl)cccc1-c1ccc(CNCc2ccccn2)o1	inactive: 2.29%	–
COc1cc(/C=N/Nc2nc(Nc3ccccc3)nc(N3CCOCC3)n2)ccc1OC(=O)c1ccco1	–	active: 20 µM
CCCCNC(=S)N(C)/N=C/c1ccc2c(c1)OCO2	–	inconclusive [activator, single point]
CCN(CCCn1c(SCC#N)nc2ccccc2c1=O)c1ccccc1	–	inconclusive [activator, single point]
COc1ccc(-c2noc(CCC(=O)Nc3ccccc3Cl)n2)cc1OC	–	inconclusive [activator, partial curve]
CSc1cccc(NS(=O)(=O)c2ccc3[nH]cc(C(=O)N4CCCCCC4)c(=O)c3c2)c1	–	inconclusive [activator, full curve]
Cn1c(-c2ccccc2)c(C(=O)CCl)c2ccccc21	–	active: 17.8 µM
CN1OC[C@@H]2CN[C@H](c3cccc(Oc4ccccc4)c3)C[C@@H]21	–	inconclusive [activator, full curve, poor fit]
O=C(O)c1ccc(CSc2nnnn2C2CCCCC2)cc1	–	inconclusive [activator, single point]
CCOc1ccccc1CNC(=O)c1ccc(Cn2c(=O)c3cccn3c3cccnc32)cc1	inactive: 20.5%	–
O=C(COC(=O)/C=C/c1ccc([N+](=O)[O-])cc1)NNC(=O)c1ccccc1	–	inconclusive [activator, partial curve]
CC(C)c1ccc(-c2noc(SCC(=O)N3CCCCC3)n2)cc1	inactive: 29.6%	–
O=C(Cc1ccc(NC(=O)C2CCN(C(=O)C3CCCCC3)CC2)cc1)Nc1cccc(C(=O)N2CCCCC2)c1	–	inconclusive [activator, full curve, poor fit]
COc1cc(C)ccc1OCCSc1nnc(-c2cccs2)o1	–	inconclusive [activator, single point]
FC(F)(F)c1cccc(N2CCN(Cc3nnc(-c4ccccc4)o3)CC2)c1	–	inconclusive [activator, partial curve]
O=C(NCc1ccc2c(c1)OCO2)c1ccccc1	inactive: 0%	–
O=C1CCS/C(=N\N=C\c2ccc(Cl)cc2Cl)N1	–	inconclusive [activator, partial curve]
Cc1ccc(S(=O)(=O)c2c(C)cc(C)nc2Cl)c(C)c1	–	inconclusive [activator, partial curve]
COC(=O)[C@]12CCCCC=C1N(CCC1=CCCCC1)C(=O)[C@H](CC(=O)N1CCN(C(=O)c3ccco3)CC1)C2	–	inconclusive [activator, single point]
COc1ccc(S(=O)(=O)Nc2cc(SCC(=O)O)c(O)c3ccccc23)cc1	–	inconclusive [activator, single point]
Cc1ccc(-c2onc(C)c2C)cc1S(=O)(=O)NC1CCC(C)CC1 (stereo not given)	inactive: 7.83%	–

SMILES	growth rescue (activation)	Potency
O=C(NCc1ccc2c(c1)OCO2)c1cccc([N+](=O)[O-])c1	inactive: 29.6%	–
COc1ccccc1N1CCN(C(=O)c2oc3ccccc3c2N)CC1	–	active: 12.6 µM
O=C1C2C3CCC(C3NCc3ccccc3)C2C(=O)N1Cc1ccccc1 (stereo not given)	–	inconclusive [activator, single point]
COc1ccc2c(c1)Cc1sc(NC(=O)c3cccc(Cl)c3)nc1-2	–	inconclusive [activator, partial curve, poor fit]
CCN(C(=O)COC(=O)c1nccnc1N)c1cccc2ccccc12	–	inconclusive [activator, partial curve]
COc1ccccc1/C=C/C1C(C(=O)OCC(C)C)=C(C)N=C2SCCC(=O)N21 (stereo not given)	–	inconclusive [activator, single point]
COC(=O)c1sc2ncccc2c1OCc1ccccc1Cl	–	inconclusive [activator, full curve]
C/C(=C\c1ccccc1)C(=O)Nc1cc(C)on1	–	inconclusive [activator, partial curve]
COc1ccccc1CC(=O)Nc1sc2c(c1C(N)=O)CCCC2	inactive: -16.2%	–
O=C(Nc1ccccc1N1CCN(C(=O)c2ccc(Cl)cc2)CC1)c1ccc([N+](=O)[O-])o1	–	inconclusive [activator, single point]
O=C(Nc1ccc(Cl)cc1C(F)(F)F)c1cc(S(=O)(=O)NCc2ccccc2)ccc1F	–	inconclusive [activator, single point]
COc1cc(-c2cc3nc(NCc4cccc(Cl)c4)ccn3n2)cc(OC)c1OC	–	inconclusive [activator, single point]
c1ccc(Cc2ccc(OCCn3cncn3)cc2)cc1	–	inconclusive [activator, partial curve]
COC(=O)c1cc2oc(C)cc2n1Cc1ccc(Cl)cc1	inactive: 12.2%	–
COCC(=O)Nc1sc2c(c1C(=O)OC)CCCC2	–	inconclusive [activator, single point]
Cc1ccc(OCCCC(=O)N2CCN(S(=O)(=O)c3cccc(F)c3)CC2)cc1	inactive: -9.9%	–
CN(/N=C/c1ccccc1Cl)c1ncc(Cl)cc1C(F)(F)F	inactive: 0%	–
COC(=O)c1ccc(/C=N/OCC(=O)NC2CCCC(C)C2C)cc1 (stereo not given)	–	inconclusive [activator, single point]
O=C(CSc1ccc(-c2ccccc2)nn1)N1CCCc2ccccc21	–	inconclusive [activator, single point]
OC(c1cccc(Cl)c1)c1nc(-c2ccc(Cl)cc2)cs1 (stereo not given)	inactive: -86.4%	–
CCNc1nc(N2CCCCC2)nc(-n2nnc(C(=O)OCC)c2C)n1	–	active: 17.8 µM
Cc1cccc(CCNC(=O)c2nc(-c3ccc(Cl)cc3)n3c2CCCCC3)c1	–	inconclusive [activator, full curve]
